Reference: the supplement of paper PMC4967469

Key:
Assay in all cases: Viability of human cancer cell lines after 72 h of drug (GDSC screen)
PIK-93 = compound: CC(=O)Nc1nc(C)c(-c2ccc(Cl)c(S(=O)(=O)NCCO)c2)s1 [PIK-93]; details: top dose 20 µM
Experimental: (§1)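 Human cancer cell lines in 384-well plates, medium with 10% serum, drug for 72 h over a 256-fold dose range (nine 2-fold or five 4-fold steps up to the top dose). Adherent lines were fixed and stained with the nucleic acid dye Syto60, suspension lines read with resazurin; signal relative to control wells, capped at 0 and 100%. One two-parameter sigmoid per drug and line, fitted in a mixed model over all curves with the slope shared within a line.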

ABT-263 = compound: CC1(C)CCC(c2ccc(Cl)cc2)=C(CN2CCN(c3ccc(C(=O)NS(=O)(=O)c4ccc(N[C@H](CCN5CCOCC5)CSc5ccccc5)c(S(=O)(=O)C(F)(F)F)c4)cc3)CC2)C1 [ABT-263]; details: top dose 2 µM; top dose inferred
Experimental: as §1

piperlongumine = compound: COc1cc(/C=C/C(=O)N2CCC=CC2=O)cc(OC)c1OC [piperlongumine]; details: top dose 10 µM
Experimental: as §1

GW 441756 = compound: Cn1cc(/C=C2\C(=O)Nc3cccnc32)c2ccccc21 [GW 441756]; details: top dose 2 µM; top dose inferred
Experimental: as §1

Cell Line	AUC (PIK-93)	IC50 (PIK-93)	AUC (ABT-263)	IC50 (ABT-263)	AUC (piperlongumine)	IC50 (piperlongumine)	AUC (GW 441756)	IC50 (GW 441756)
OV-17R (ovary, adherent)	0.76	9800 nM	0.967	> 2000 nM	0.764	5080 nM	0.828	1970 nM
NCI-H1703 (lung adenocarcinoma, adherent)	0.859	> 20000 nM	0.879	> 2000 nM	0.732	3380 nM	0.659	383 nM
TMK-1 (stomach, adherent)	0.879	> 20000 nM	0.985	> 2000 nM	0.858	9040 nM	0.938	> 2000 nM
SW626 (ovary, adherent)	0.856	> 20000 nM	0.85	1980 nM	0.781	4990 nM	0.98	> 2000 nM
HCT-15 (large intestine, adherent)	0.81	11300 nM	0.984	> 2000 nM	0.83	6790 nM	0.973	> 2000 nM
UWB1.289 (ovary, adherent)	0.862	> 20000 nM	0.907	> 2000 nM	0.774	6140 nM	0.965	> 2000 nM
H513 (mesothelioma, semi-adherent)	0.929	> 20000 nM	0.979	> 2000 nM	0.811	6800 nM	0.953	> 2000 nM
DOV13 (ovary, adherent)	0.96	> 20000 nM	0.908	> 2000 nM	0.656	1810 nM	0.953	> 2000 nM
NCI-H1623 (lung adenocarcinoma, adherent)	0.924	> 20000 nM	0.889	> 2000 nM	0.921	> 10000 nM	0.903	> 2000 nM
KYSE-150 (oesophagus, adherent)	0.89	> 20000 nM	0.987	> 2000 nM	0.854	7390 nM	0.989	> 2000 nM
42-MG-BA (glioma, adherent)	0.824	13000 nM	0.963	> 2000 nM	0.746	3360 nM	0.985	> 2000 nM
PFSK-1 (medulloblastoma, adherent)	0.807	11000 nM	0.791	959 nM	0.695	2290 nM	0.853	1710 nM
MC-IXC (neuroblastoma, adherent)	0.82	7780 nM	0.965	> 2000 nM	0.85	4710 nM	0.994	> 2000 nM
COLO-680N (oesophagus, adherent)	0.985	> 20000 nM	0.975	> 2000 nM	0.851	> 10000 nM	0.982	> 2000 nM
OVK-18 (ovary, adherent)	0.97	> 20000 nM	0.965	> 2000 nM	0.687	2220 nM	0.941	> 2000 nM
NCI-H2452 (mesothelioma, adherent)	0.978	> 20000 nM	0.97	> 2000 nM	0.766	4370 nM	0.984	> 2000 nM
EMC-BAC-2 (lung adenocarcinoma, adherent)	0.647	3450 nM	0.893	> 2000 nM	0.765	4310 nM	0.905	> 2000 nM
TE-4 (oesophagus, adherent)	0.975	> 20000 nM	0.923	> 2000 nM	0.829	6180 nM	0.897	> 2000 nM
PE/CA-PJ15 (head and neck, adherent)	0.917	> 20000 nM	0.941	> 2000 nM	0.696	2330 nM	0.97	> 2000 nM
HCC1419 (breast, adherent)	0.876	> 20000 nM	0.842	> 2000 nM	0.953	> 10000 nM	0.905	> 2000 nM
CHL-1 (melanoma, adherent)	0.643	3040 nM	0.985	> 2000 nM	0.599	1150 nM	0.985	> 2000 nM
SBC-5 (small cell lung carcinoma, adherent)	0.936	> 20000 nM	0.993	> 2000 nM	0.797	3740 nM	0.993	> 2000 nM
MS751 (cervix, adherent)	0.956	> 20000 nM	0.989	> 2000 nM	0.752	3090 nM	0.981	> 2000 nM
KYSE-450 (oesophagus, adherent)	0.804	9320 nM	0.973	> 2000 nM	0.861	7690 nM	0.959	> 2000 nM
DMS-273 (small cell lung carcinoma, adherent)	0.467	1010 nM	0.97	> 2000 nM	0.662	1820 nM	0.971	> 2000 nM

A lower IC50 marks a more sensitive line; a fit beyond the top or the lowest dose is shown as a bound at that dose. The AUC spans the tested range (256-fold, ending at the top dose) of the same fit; values near 1 show little effect. For some assays here: Where the top dose is marked as inferred, it is not printed in the source and was worked back from the curve model.
